69 sequences from the supplement of paper PMC5655136 can be followed below.

Values come from read counts of a selection and are noisy.
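Note: shRNA barcodes quantified by deep sequencing of PCR amplicons from cellular DNA, counts expressed as percent of each subpool, ratio averaged over two biological duplicates.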

In one series the test system is NB7. Kind of series: fold depletion of shRNA, plasmid library share / infected cells without Dox share (9 days) (ratio); higher = more depleted after infection (more toxic, leaky expression from a Tet-inducible vector; NB7 is a neuroblastoma line without caspase-8). Particulars: shRNA pool: CD95L ORF + CD95L 3'UTR + Venus libraries.
Regarding ACATAGAACTCTGGGCTGCCA, the “fold depletion of shRNA” value amounted to 1.98.
Consider AGAAGCATGAAAAAGCAGCTA, for which the “fold depletion of shRNA” value was 2.36.
Consider ATACTTCCGGGGTCAATCTTG, for which the “fold depletion of shRNA” value came out at 14.
For CCTGAGAGTATTTAGGCAGAT, the “fold depletion of shRNA” value turned out to be 1.74.
With AGAAGACATGAACCAAGTGGA, the “fold depletion of shRNA” value stood at 2.73.
With TTGTGAAGTACATATTAGGAA, the “fold depletion of shRNA” value was determined as 0.812.
As for GATGATGAGCTACTGCACTAC, the “fold depletion of shRNA” value came to 1.69.
Same read-out and setting: then CTGAGCTACCAGTCCGCCCTG, with 0.64; and TATATCACCGCCGACAAGCAG, with 1.29.
Turning to AGGCAGATTGAAAAGGACACC, the “fold depletion of shRNA” value was 1.38.
As to ACCACCGGCAAGCTGCCCGTG, the “fold depletion of shRNA” value turned out to be 0.418.
Take AAGGTGGGCCTTGCTACCTCA: the “fold depletion of shRNA” value was found to be 1.19.
As for GCATTTGAGGTCAAGTAAGAA, the “fold depletion of shRNA” value was determined as 1.27.
With GTCGAGCTGGACGGCGACGTA, the “fold depletion of shRNA” value amounted to 1.91.
As for AGAAGCGCGATCACATGGTCC, the “fold depletion of shRNA” value worked out at 2.95.
For TCATTCCTAACACAGCATGTG, the “fold depletion of shRNA” value was 1.85.
Regarding CAAGGACGACGGCAACTACAA, the “fold depletion of shRNA” value is 1.24.
As to GCCTGAGAGTATTTAGGCAGA, the “fold depletion of shRNA” value was 0.822.
Turning to CAAGATCCGCCACAACATCGA, the “fold depletion of shRNA” value was 1.08.
Turning to CTTAAAAATCATTGATTGTCA, the “fold depletion of shRNA” value came to 4.96.
Regarding CTCTTCCACCTACAGAAGGAG, the “fold depletion of shRNA” value is 1.15.
On to GGGCAGTGTTCAATCTTACCA, for which the “fold depletion of shRNA” value was determined as 1.34.
For the sequence AAGGACGACGGCAACTACAAG, the “fold depletion of shRNA” value was determined as 1.96.
For the sequence CACCCTCGTGACCACCCTGGG, the “fold depletion of shRNA” value is 1.2.
Take GAGGGTCTTCTTACATGCATT: the “fold depletion of shRNA” value is 2.63.
For AACGTCTATATCACCGCCGAC, the “fold depletion of shRNA” value worked out at 1.37.
In the case of CTACCAGGTGTTCTACACTCA, the “fold depletion of shRNA” value was found to be 1.87.
Consider GAGGTGAAGTTCGAGGGCGAC, for which the “fold depletion of shRNA” value was 0.84.
Same read-out and setting: then AGGCCAATGCCCCACTGGCAG, with 1.97.
Still for that read-out and setting: then AACACAGCATGTGTATTTCCA, with 1.37; and GTCCTGCTGGAGTTCGTGACC, with 1.58; and GTGTTCTACACTCATCTTAGT, with 2.45.
As to ACAAGACCCGCGCCGAGGTGA, the “fold depletion of shRNA” value was found to be 0.423.
As for ATGTTTTCCTATAATATAATA, the “fold depletion of shRNA” value worked out at 0.894.
In the case of ATCACCGCCGACAAGCAGAAG, the “fold depletion of shRNA” value is 2.75.
Still for that read-out and setting: then AAGGAGGCCACCACCACCACC, with 24; and TCTCCTTGTGATGTTTTTCAT, with 1.06; and CATTATGATTCTTTGTTACAG, with 0.57.
Consider AGACCCCAACGAGAAGCGCGA, for which the “fold depletion of shRNA” value came to 2.72.
On the same count and under the same terms, then CCTGAAGCTGATCTGCACCAC, with 1.47; and ATCAACTCTAATAGTGCTTAA, with 0.562.
Take GTCCAACTCAAGGTCCATGCC: the “fold depletion of shRNA” value was determined as 4.06.
As for TATAATATAATAAATATTTAT, the “fold depletion of shRNA” value worked out at 1.47.
Still for that read-out and setting: then TCTTCACTTCTAAATGCATAT, with 0.727.
Turning to CAACGTCTATATCACCGCCGA, the “fold depletion of shRNA” value is 1.86.
For TGTAGCTCCTCAACTCACCTA, the “fold depletion of shRNA” value came to 1.03.
As for TAACAGATAAGCAAGAGAGAT, the “fold depletion of shRNA” value is 1.66.
For GCAAGCTGACCCTGAAGCTGA, the “fold depletion of shRNA” value came out at 0.782.
For AAGCAGCTACCAGGTGTTCTA, the “fold depletion of shRNA” value came out at 3.12.
On the same count and under the same terms, then GAGTACAACTACAACAGCCAC, with 2.42.

Staying with this series, now noted: shRNA pool: CD95 ORF + CD95 3'UTR + Venus libraries.
On to ACTGCACAGTCAATGGGGATG, for which the “fold depletion of shRNA” value worked out at 0.808.
As for CAAACATGGAAATATCACCAA, the “fold depletion of shRNA” value was found to be 0.639.
As to TCAGAAAATTCAAACTTCAGA, the “fold depletion of shRNA” value stood at 0.812.
As for GTTCTCATGAATCTCCAACTT, the “fold depletion of shRNA” value came to 1.42.
Take TTGGAATTATAAAATATAGGT: the “fold depletion of shRNA” value stood at 1.26.
As to CTTGGGGTGGCTTTGTCTTCT, the “fold depletion of shRNA” value turned out to be 0.644.
Take TCTAAACTTTGTTTATAACTC: the “fold depletion of shRNA” value was determined as 1.43.
For the sequence TGAACCAGACTGCGTGCCCTG, the “fold depletion of shRNA” value came out at 0.942.
On to TGACCTTTTGCTGAAATATCA, for which the “fold depletion of shRNA” value is 0.935.
Consider TTTCTAAACTTTGTTTATAAC, for which the “fold depletion of shRNA” value was 1.2.
AAGGAAAGCTAGGGACTGCAC: the “fold depletion of shRNA” value is 2.28.
As to TCTCAAAAAAGCCAATCTTTG, the “fold depletion of shRNA” value worked out at 1.74.
Consider CGAAAATGTTCAATAATGTCC, for which the “fold depletion of shRNA” value worked out at 1.11.
Turning to AGAGATTTTACCATATTTCTA, the “fold depletion of shRNA” value was determined as 1.03.
Regarding CTCAAAGACCTTTGCACAGTT, the “fold depletion of shRNA” value was determined as 1.77.
On the same count and under the same terms, then AGGCTAACCCCACTCTATGAA, with 40.1; and AATGGCCTAATGCACCCCCAA, with 5.59.
With ACCCAGAATACCAAGTGCAGA, the “fold depletion of shRNA” value is 2.1.
Turning to AAATAGATTCTTATTTTTCCC, the “fold depletion of shRNA” value came to 1.14.
